The values below come from paper PMC8042174.

Sequences of proteins named here, by UniProt entry; tags and fusion partners are left off.
UniProt P43250: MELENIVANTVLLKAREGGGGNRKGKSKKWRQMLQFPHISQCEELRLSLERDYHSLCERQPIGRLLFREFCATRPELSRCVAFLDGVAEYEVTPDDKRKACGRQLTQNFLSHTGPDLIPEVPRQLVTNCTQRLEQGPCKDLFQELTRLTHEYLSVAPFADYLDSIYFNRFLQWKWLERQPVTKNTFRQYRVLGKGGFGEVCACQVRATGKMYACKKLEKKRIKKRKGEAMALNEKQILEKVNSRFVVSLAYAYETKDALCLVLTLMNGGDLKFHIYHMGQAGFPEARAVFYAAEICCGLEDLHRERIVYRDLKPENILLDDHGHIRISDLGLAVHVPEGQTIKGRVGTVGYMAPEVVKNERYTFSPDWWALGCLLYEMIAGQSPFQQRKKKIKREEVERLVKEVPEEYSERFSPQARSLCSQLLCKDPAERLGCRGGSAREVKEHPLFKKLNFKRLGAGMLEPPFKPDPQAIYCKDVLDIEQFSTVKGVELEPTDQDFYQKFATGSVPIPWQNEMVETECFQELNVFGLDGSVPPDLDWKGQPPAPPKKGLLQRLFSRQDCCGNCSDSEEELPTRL

No constants are given. Whether binding was seen depends on the method and setting. Binding seen in cells or lysates may run through a third protein. Some entries that bind do so weakly or less than the wild type. Tags and fused reporters may be left off the sequences shown.

One assay deals with T1, HA-GFP-NPT2A (human) (UniProt Q06495).
T1 sequence: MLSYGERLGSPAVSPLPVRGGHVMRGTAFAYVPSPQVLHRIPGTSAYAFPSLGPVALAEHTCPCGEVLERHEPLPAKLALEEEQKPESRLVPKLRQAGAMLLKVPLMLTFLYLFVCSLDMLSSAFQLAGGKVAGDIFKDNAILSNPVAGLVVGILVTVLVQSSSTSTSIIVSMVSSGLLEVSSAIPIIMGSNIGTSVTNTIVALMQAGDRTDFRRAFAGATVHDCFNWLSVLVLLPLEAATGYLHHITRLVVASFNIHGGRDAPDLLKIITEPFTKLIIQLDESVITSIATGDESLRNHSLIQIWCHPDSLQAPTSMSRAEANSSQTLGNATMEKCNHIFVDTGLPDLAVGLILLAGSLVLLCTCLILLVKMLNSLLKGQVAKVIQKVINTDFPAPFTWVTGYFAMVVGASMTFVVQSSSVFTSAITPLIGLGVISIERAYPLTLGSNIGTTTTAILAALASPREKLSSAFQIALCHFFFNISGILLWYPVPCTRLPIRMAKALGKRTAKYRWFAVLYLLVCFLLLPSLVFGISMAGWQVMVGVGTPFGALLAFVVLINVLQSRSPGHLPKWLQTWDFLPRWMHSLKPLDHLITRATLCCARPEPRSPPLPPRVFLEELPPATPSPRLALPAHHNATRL
Nature of the assay: co-IP; OKH cells transfected with HA-GFP-NPT2A and FLAG-NHERF1 (WT, S162A, S162D).

The target of the next assay is T2, HA-NPT2A (human) (UniProt Q06495).
T2 sequence: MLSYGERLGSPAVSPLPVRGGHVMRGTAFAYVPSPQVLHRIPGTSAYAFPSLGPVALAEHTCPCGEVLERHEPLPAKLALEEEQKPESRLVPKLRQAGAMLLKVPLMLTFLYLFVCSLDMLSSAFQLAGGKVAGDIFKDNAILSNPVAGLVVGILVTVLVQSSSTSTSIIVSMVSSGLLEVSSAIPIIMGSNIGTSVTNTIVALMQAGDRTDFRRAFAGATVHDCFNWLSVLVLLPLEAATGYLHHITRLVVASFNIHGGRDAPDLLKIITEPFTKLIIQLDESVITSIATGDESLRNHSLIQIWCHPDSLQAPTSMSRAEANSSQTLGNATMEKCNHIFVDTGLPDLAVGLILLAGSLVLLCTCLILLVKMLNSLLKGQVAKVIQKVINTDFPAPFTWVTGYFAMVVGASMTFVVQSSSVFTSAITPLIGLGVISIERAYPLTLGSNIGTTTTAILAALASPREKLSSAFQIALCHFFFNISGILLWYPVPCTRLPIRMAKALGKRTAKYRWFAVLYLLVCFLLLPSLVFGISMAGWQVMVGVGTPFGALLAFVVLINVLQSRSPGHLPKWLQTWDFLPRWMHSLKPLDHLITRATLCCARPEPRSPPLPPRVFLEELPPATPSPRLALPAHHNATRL
Nature of the assay: co-IP; 293 cells transfected with HA-NPT2A and FLAG-NHERF1 (WT, S162A, S162D).

For a further assay, the target named is HA-GRK6A (human) (UniProt P43250). In words: co-IP; HA-GRK6A cotransfected with FLAG-NHERF1 constructs in OKH cells; lysis in 1% Nonidet P-40, 50 mM Tris, 150 mM NaCl, 5 mM EDTA; which partner was precipitated is not told.

B1: FLAG-NHERF1 S162A (protein, UniProt O14745 1-358)
chain: MSADAAAGAPLPRLCCLEKGPNGYGFHLHGEKGKLGQYIRLVEPGSPAEKAGLLAGDRLVEVNGENVEKETHQQVVSRIRAALNAVRLLVVDPETDEQLQKLGVQVREELLRAQEAPGQAEPPAAAEVQGAGNENEPREADKSHPEQRELRPRLCTMKKGPAGYGFNLHSDKSKPGQFIRSVDPDSPAEASGLRAQDRIVEVNGVCMEGKQHGDVVSAIRAGGDETKLLVVDRETDEFFKKCRVIPSQEHLNGPLPVPFTNGEIQKENSREALAEAALESPRPALVRSASSDTSEELNSQDSPPKQDSTAPSSTSSSDPILDFNISLAMAKERAHQKRSSKRAPQMDWSKKNELFSNL
Turning to B1, the binding result in the assay with HA-GFP-NPT2A (human) and with HA-NPT2A (human) was “binds” in each case.

B2: FLAG-NHERF1 S162D (protein, UniProt O14745 1-358)
chain: MSADAAAGAPLPRLCCLEKGPNGYGFHLHGEKGKLGQYIRLVEPGSPAEKAGLLAGDRLVEVNGENVEKETHQQVVSRIRAALNAVRLLVVDPETDEQLQKLGVQVREELLRAQEAPGQAEPPAAAEVQGAGNENEPREADKSHPEQRELRPRLCTMKKGPDGYGFNLHSDKSKPGQFIRSVDPDSPAEASGLRAQDRIVEVNGVCMEGKQHGDVVSAIRAGGDETKLLVVDRETDEFFKKCRVIPSQEHLNGPLPVPFTNGEIQKENSREALAEAALESPRPALVRSASSDTSEELNSQDSPPKQDSTAPSSTSSSDPILDFNISLAMAKERAHQKRSSKRAPQMDWSKKNELFSNL
For B2, the binding result with HA-GFP-NPT2A (human) and with HA-NPT2A (human) was “no binding” each time.

B3: FLAG-NHERF1 N1P2-GAGA (protein, UniProt O14745 1-358)
chain: MSADAAAGAPLPRLCCLEKGPNGYGFHLHGEKGKLGQYIRLVEPGSPAEKAGLLAGDRLVEVNGENVEKETHQQVVSRIRAALNAVRLLVVDPETDEQLQKLGVQVREELLRAQEAPGQAEPPAAAEVQGAGNENEPREADKSHPEQRELRPRLCTMKKGPSGAGANLHSDKSKPGQFIRSVDPDSPAEASGLRAQDRIVEVNGVCMEGKQHGDVVSAIRAGGDETKLLVVDRETDEFFKKCRVIPSQEHLNGPLPVPFTNGEIQKENSREALAEAALESPRPALVRSASSDTSEELNSQDSPPKQDSTAPSSTSSSDPILDFNISLAMAKERAHQKRSSKRAPQMDWSKKNELFSNL
Take B3: the binding result in the assay with HA-GRK6A (human) is “binds”.

B4: FLAG-NHERF1 N1P1P2-GAGA (protein, UniProt O14745 1-358)
chain: MSADAAAGAPLPRLCCLEKGPNGAGAHLHGEKGKLGQYIRLVEPGSPAEKAGLLAGDRLVEVNGENVEKETHQQVVSRIRAALNAVRLLVVDPETDEQLQKLGVQVREELLRAQEAPGQAEPPAAAEVQGAGNENEPREADKSHPEQRELRPRLCTMKKGPSGAGANLHSDKSKPGQFIRSVDPDSPAEASGLRAQDRIVEVNGVCMEGKQHGDVVSAIRAGGDETKLLVVDRETDEFFKKCRVIPSQEHLNGPLPVPFTNGEIQKENSREALAEAALESPRPALVRSASSDTSEELNSQDSPPKQDSTAPSSTSSSDPILDFNISLAMAKERAHQKRSSKRAPQMDWSKKNELFSNL
Consider B4, for which, in the assay with HA-GRK6A (human), the binding entry is reported as “no binding”.
